Experimental data: PMC5700166
Only a part is listed here, and it is no random draw. The list includes weakly bound sequences.

Key:
Test in all cases: protein-binding microarray (PBM)
Details in all cases: PBM: ~300 nM protein, 6 mM HEPES pH 7.8, 80 mM KCl, 0.5 mM EDTA, 0.5 mM EGTA, 6% glycerol, 35 ng/ul poly-dIdC, 1% milk, 1 h, room temperature; Ap Aiptasia and Nv Nematostella (sea anemones) / Co Capsaspora / Aq Amphimedon (sponge) / Dm Drosophila / Hu human; RHD is the Rel homology domain; high values mean tight binding; most listed sequences are background and not binding sites; double strand, one strand shown
GST-Ap-NF-kB RHD = target: T1, GST-Ap-NF-kB RHD (UniProt A0A913YAJ5)
T1 sequence: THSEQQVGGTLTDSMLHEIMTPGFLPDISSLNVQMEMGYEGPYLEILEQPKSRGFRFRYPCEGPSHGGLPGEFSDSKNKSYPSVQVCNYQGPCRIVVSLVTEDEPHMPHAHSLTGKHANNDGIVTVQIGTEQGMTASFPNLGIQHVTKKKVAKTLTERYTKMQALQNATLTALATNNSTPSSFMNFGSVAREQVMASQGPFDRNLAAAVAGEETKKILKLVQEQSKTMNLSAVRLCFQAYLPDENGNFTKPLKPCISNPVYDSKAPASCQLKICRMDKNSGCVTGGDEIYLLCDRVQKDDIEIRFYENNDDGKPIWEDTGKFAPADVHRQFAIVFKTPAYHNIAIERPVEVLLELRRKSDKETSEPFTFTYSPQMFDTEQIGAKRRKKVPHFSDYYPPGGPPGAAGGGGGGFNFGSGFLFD

[1] = target: T2, GST-Nv-NF-kB (Cys allele) (UniProt E5G601)
T2 sequence: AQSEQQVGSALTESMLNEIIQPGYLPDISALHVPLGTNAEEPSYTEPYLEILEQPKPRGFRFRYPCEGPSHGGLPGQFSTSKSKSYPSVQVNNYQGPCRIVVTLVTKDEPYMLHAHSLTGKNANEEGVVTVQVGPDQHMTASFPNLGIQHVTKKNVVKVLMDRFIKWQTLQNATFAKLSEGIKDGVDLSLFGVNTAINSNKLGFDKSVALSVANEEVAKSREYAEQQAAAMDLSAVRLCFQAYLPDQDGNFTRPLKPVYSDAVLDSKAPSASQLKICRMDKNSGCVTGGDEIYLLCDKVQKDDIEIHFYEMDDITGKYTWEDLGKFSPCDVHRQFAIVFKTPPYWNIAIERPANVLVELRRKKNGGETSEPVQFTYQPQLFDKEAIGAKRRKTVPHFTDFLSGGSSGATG

GST-Co-NF-kB = target: T3, GST-Co-NF-kB (UniProt F1ARL5)
T3 sequence: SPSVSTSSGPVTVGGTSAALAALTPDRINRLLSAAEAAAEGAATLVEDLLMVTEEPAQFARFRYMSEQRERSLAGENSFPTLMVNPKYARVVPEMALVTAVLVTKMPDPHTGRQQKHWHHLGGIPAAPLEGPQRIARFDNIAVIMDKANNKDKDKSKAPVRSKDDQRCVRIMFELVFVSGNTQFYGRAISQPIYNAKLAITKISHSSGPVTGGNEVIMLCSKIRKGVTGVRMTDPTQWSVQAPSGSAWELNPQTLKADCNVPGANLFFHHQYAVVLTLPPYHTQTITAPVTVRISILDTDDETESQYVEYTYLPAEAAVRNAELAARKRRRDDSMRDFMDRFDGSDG

GST-Dm-Relish = target: T4, GST-Dm-Relish (UniProt Q94527)
T4 sequence: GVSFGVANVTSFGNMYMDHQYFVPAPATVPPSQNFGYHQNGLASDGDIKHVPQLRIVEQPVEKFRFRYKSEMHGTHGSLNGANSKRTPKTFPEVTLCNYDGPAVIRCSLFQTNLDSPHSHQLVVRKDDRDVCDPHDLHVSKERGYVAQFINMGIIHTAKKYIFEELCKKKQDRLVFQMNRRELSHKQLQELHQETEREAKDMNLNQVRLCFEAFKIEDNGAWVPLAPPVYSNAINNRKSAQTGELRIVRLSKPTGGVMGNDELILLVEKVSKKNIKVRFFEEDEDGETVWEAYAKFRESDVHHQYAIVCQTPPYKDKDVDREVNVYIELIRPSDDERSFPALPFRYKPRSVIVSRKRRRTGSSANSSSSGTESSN

GST-Aq-NF-kB = target: T5, GST-Aq-NF-kB (UniProt A9Y5G7)
T5 sequence: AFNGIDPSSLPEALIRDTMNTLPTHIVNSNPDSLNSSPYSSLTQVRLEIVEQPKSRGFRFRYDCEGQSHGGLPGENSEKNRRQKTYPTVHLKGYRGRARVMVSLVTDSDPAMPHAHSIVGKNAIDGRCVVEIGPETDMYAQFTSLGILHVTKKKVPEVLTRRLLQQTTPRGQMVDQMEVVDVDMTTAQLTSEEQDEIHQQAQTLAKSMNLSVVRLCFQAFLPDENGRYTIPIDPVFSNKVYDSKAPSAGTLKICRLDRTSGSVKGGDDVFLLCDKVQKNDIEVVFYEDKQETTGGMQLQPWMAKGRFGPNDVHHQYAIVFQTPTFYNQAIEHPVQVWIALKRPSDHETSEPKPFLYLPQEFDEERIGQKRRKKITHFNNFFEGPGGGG

Row | Sequence | binding signal (GST-Ap-NF-kB RHD) [z-score] | binding signal [1] [z-score] | binding signal (GST-Co-NF-kB) [z-score] | binding signal (GST-Dm-Relish) [z-score] | binding signal (GST-Aq-NF-kB) [z-score]
1 | CCGATTAACATCACTCAATTCGTTGATGTTAATCGGGTCTTGATTCGCTTGACGCTGCTG | -0.339 | -0.842 | -0.0201 | -0.401 | -0.265
2 | CCGATTAACATCAGTTCACGCCGTGATGTTAATCGGGTCTTGATTCGCTTGACGCTGCTG | -0.0827 | -0.288 | 0.228 | -0.301 | -0.386
3 | CCGATTAACATCAAACACTGCTTTGATGTTAATCGGGTCTTGATTCGCTTGACGCTGCTG | -0.605 | -0.849 | -0.757 | -0.877 | -0.732
4 | CCGATTAACATCATTGGTACGTTTGATGTTAATCGGGTCTTGATTCGCTTGACGCTGCTG | 0.498 | -0.105 | 0.296 | 0.355 | -0.279
5 | CCGATTAACATCACTAATGGATCTGATGTTAATCGGGTCTTGATTCGCTTGACGCTGCTG | -0.827 | -0.379 | -0.0448 | -0.394 | -0.599
6 | CCGATTAACATCAACACTGATCGTGATGTTAATCGGGTCTTGATTCGCTTGACGCTGCTG | -0.427 | -0.0331 | 0.112 | -0.0591 | -0.403
7 | CCGATTAACATCACACTGGTTATTGATGTTAATCGGGTCTTGATTCGCTTGACGCTGCTG | -0.0888 | -0.866 | -0.16 | 0.231 | -0.358
8 | CCGATTAACATCATGGACCTTTCTGATGTTAATCGGGTCTTGATTCGCTTGACGCTGCTG | -0.605 | 0.0211 | -0.0945 | -0.344 | 0.00534
9 | CCGATTAACATCACGACAGTTATTGATGTTAATCGGGTCTTGATTCGCTTGACGCTGCTG | -0.166 | -0.613 | 0.562 | -0.344 | -0.345
10 | CCGATTAACATCAGATACCAGGGTGATGTTAATCGGGTCTTGATTCGCTTGACGCTGCTG | 0.203 | -0.217 | 1.09 | 0.223 | 0.403
11 | CCGATTAACATCAGTAAGCAAGCTGATGTTAATCGGGTCTTGATTCGCTTGACGCTGCTG | -0.733 | -0.0616 | -1.12 | -0.777 | -0.346
12 | CCGATTAACATCATGTGCAGCGATGATGTTAATCGGGTCTTGATTCGCTTGACGCTGCTG | -0.535 | -0.526 | -1.5 | -0.693 | -0.468
13 | CCGATTAACATCAGTAGTAGCCCTGATGTTAATCGGGTCTTGATTCGCTTGACGCTGCTG | -0.0294 | -0.211 | -0.374 | -0.335 | 0.013
14 | CCGATTAACATCAACCACGCATTTGATGTTAATCGGGTCTTGATTCGCTTGACGCTGCTG | -0.222 | 0.455 | 0.152 | -0.165 | -0.469
15 | CCGATTAACATCATAATCCATTGTGATGTTAATCGGGTCTTGATTCGCTTGACGCTGCTG | -0.869 | -0.824 | -0.2 | -0.363 | -0.376
16 | CCGATTAACATCATACACGATGATGATGTTAATCGGGTCTTGATTCGCTTGACGCTGCTG | -0.623 | 0.597 | 0.155 | -0.358 | -0.325
17 | CCGATTAACATCATTACAGGCCGTGATGTTAATCGGGTCTTGATTCGCTTGACGCTGCTG | 0.274 | -0.539 | -0.191 | 0.129 | -0.306
18 | CCGATTAACATCAGGAATTTTGATGATGTTAATCGGGTCTTGATTCGCTTGACGCTGCTG | -0.391 | -0.158 | -0.254 | -0.00823 | 0.598
19 | CCGATTAACATCAGCTGTTAGCCTGATGTTAATCGGGTCTTGATTCGCTTGACGCTGCTG | -0.196 | -0.0711 | -0.735 | -1.02 | -0.445
20 | CCGATTAACATCAACGTCCTGATTGATGTTAATCGGGTCTTGATTCGCTTGACGCTGCTG | 0.145 | 0.104 | -0.0496 | -0.12 | -0.0908
21 | CCGATTAACATCATTCACTTCTATGATGTTAATCGGGTCTTGATTCGCTTGACGCTGCTG | -0.57 | 0.0891 | 0.105 | -0.25 | -0.532
22 | CCGATTAACATCAACCCGAGTCGTGATGTTAATCGGGTCTTGATTCGCTTGACGCTGCTG | -0.242 | -0.289 | 0.851 | -0.35 | -0.0629
23 | CCGATTAACATCAGGAATATTTATGATGTTAATCGGGTCTTGATTCGCTTGACGCTGCTG | 0.166 | -0.683 | 0.11 | 0.294 | 0.306
24 | CCGATTAACATCAGGAATCGCCATGATGTTAATCGGGTCTTGATTCGCTTGACGCTGCTG | -0.281 | -0.231 | -0.965 | -0.248 | -0.108
25 | CCGATTAACATCAGTCTATGTGCTGATGTTAATCGGGTCTTGATTCGCTTGACGCTGCTG | -0.477 | -0.868 | -0.971 | -0.641 | -0.399
26 | CCGATTAACATCAACAGACGTGGTGATGTTAATCGGGTCTTGATTCGCTTGACGCTGCTG | -0.542 | -0.181 | -0.277 | 0.0587 | -0.35
27 | CCGATTAACATCAGGGGATTTTATGATGTTAATCGGGTCTTGATTCGCTTGACGCTGCTG | 10.4 | 11.7 | 4.81 | 9.55 | 8.66
28 | CCGATTAACATCATACTGGGCGCTGATGTTAATCGGGTCTTGATTCGCTTGACGCTGCTG | 0.205 | -0.657 | -0.143 | -0.501 | -0.253
